# Measurements taken from publication PMC12820563, “FoxP3 forms a head-to-head dimer in vivo and stabilizes its multimerization on adjacent microsatellites”.
# The list shows a part of the results.
# Target: T1, MBP-FoxP1dN (Mus musculus, UniProt P58462 326-579)
# T1 sequence: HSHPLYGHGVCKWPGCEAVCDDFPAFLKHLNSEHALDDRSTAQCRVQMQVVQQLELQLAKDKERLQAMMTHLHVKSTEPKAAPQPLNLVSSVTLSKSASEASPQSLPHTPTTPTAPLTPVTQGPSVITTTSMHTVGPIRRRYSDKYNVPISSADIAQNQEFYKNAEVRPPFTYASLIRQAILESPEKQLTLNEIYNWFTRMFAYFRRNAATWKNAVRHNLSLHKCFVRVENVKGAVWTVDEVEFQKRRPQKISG
# Test: PD-seq (MBP pull-down with sequencing); 20 mM Tris-HCl pH 7.5, 100 mM NaCl, 1.5 mM MgCl2, 0.4 uM protein, 0.1 uM dsDNA library, 30 min, room temperature, amylose pull-down; high values mean tight binding
# Details: protein: recombinant; tags: His6-MBP; chain copies: 2; dsDNA, one strand shown
# How it was run: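 His6-MBP-tagged mouse FoxP3 or FoxP1 fragment lacking the N-terminus, expressed in E. coli, was mixed at 0.4 µM with 0.1 µM Klenow-filled double-stranded degenerate DNA library. Incubation was 30 min at room temperature in Tris pH 7.5 buffer with NaCl and MgCl2. Complexes were caught on amylose resin and washed three times; DNA was released with proteinase K, PCR-barcoded and Illumina-sequenced. Binding is reads-per-million enrichment, pull-down over input, with replicates pooled.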
row,Sequence,binding signal
1,GATGATTGTTCTCCCAGCTGATGAATTCTTATGTTCGAGTAAACAAATTTTCCTAATCTTTCTGTTCAAGCGCCATCTAC,1.21 RPM ratio (pull-down/input)
2,GATGATTGTTCTCCCAGCTGATGAATTGGCAGGCTCGAGTAAACAAATTTTCCTAATCTTTCTGTTCAAGCGCCATCTAC,0.767 RPM ratio (pull-down/input)
3,GATGATTGTTCTCCCAGCTGATGAATTGGGCTCCTCGAGTAAACAAATTTTCCTAATCTTTCTGTTCAAGCGCCATCTAC,0.774 RPM ratio (pull-down/input)
4,GATGATTGTTCTCCCAGCTGATGAATTAACTGAATCGAGTAAACAAATTTTCCTAATCTTTCTGTTCAAGCGCCATCTAC,1.02 RPM ratio (pull-down/input)
5,GATGATTGTTCTCCCAGCTGATGAATTCCATGCATCGAGTAAACAAATTTTCCTAATCTTTCTGTTCAAGCGCCATCTAC,1.07 RPM ratio (pull-down/input)
6,GATGATTGTTCTCCCAGCTGATGAATTCGGCTCCTCGAGTAAACAAATTTTCCTAATCTTTCTGTTCAAGCGCCATCTAC,0.747 RPM ratio (pull-down/input)
7,GATGATTGTTCTCCCAGCTGATGAATTTTGACTGTCGAGTAAACAAATTTTCCTAATCTTTCTGTTCAAGCGCCATCTAC,0.889 RPM ratio (pull-down/input)
8,GATGATTGTTCTCCCAGCTGATGAATTCGAGTCATCGAGTAAACAAATTTTCCTAATCTTTCTGTTCAAGCGCCATCTAC,0.921 RPM ratio (pull-down/input)
9,GATGATTGTTCTCCCAGCTGATGAATTTACACTTTCGAGTAAACAAATTTTCCTAATCTTTCTGTTCAAGCGCCATCTAC,1.45 RPM ratio (pull-down/input)
10,GATGATTGTTCTCCCAGCTGATGAATTCTATTTCTCGAGTAAACAAATTTTCCTAATCTTTCTGTTCAAGCGCCATCTAC,0.971 RPM ratio (pull-down/input)
11,GATGATTGTTCTCCCAGCTGATGAATTGCAGTAATCGAGTAAACAAATTTTCCTAATCTTTCTGTTCAAGCGCCATCTAC,1.57 RPM ratio (pull-down/input)
12,GATGATTGTTCTCCCAGCTGATGAATTTCTTCGTTCGAGTAAACAAATTTTCCTAATCTTTCTGTTCAAGCGCCATCTAC,0.86 RPM ratio (pull-down/input)
13,GATGATTGTTCTCCCAGCTGATGAATTTCCGCTGTCGAGTAAACAAATTTTCCTAATCTTTCTGTTCAAGCGCCATCTAC,0.845 RPM ratio (pull-down/input)
14,GATGATTGTTCTCCCAGCTGATGAATTATCGATGTCGAGTAAACAAATTTTCCTAATCTTTCTGTTCAAGCGCCATCTAC,1.15 RPM ratio (pull-down/input)
15,GATGATTGTTCTCCCAGCTGATGAATTTGATAAGTCGAGTAAACAAATTTTCCTAATCTTTCTGTTCAAGCGCCATCTAC,0.939 RPM ratio (pull-down/input)
16,GATGATTGTTCTCCCAGCTGATGAATTGAGTGCGTCGAGTAAACAAATTTTCCTAATCTTTCTGTTCAAGCGCCATCTAC,1.05 RPM ratio (pull-down/input)
17,GATGATTGTTCTCCCAGCTGATGAATTATTGACCTCGAGTAAACAAATTTTCCTAATCTTTCTGTTCAAGCGCCATCTAC,1.31 RPM ratio (pull-down/input)
18,GATGATTGTTCTCCCAGCTGATGAATTCAACTTCTCGAGTAAACAAATTTTCCTAATCTTTCTGTTCAAGCGCCATCTAC,0.85 RPM ratio (pull-down/input)
19,GATGATTGTTCTCCCAGCTGATGAATTTCCAAATTCGAGTAAACAAATTTTCCTAATCTTTCTGTTCAAGCGCCATCTAC,0.863 RPM ratio (pull-down/input)
20,GATGATTGTTCTCCCAGCTGATGAATTATAGCGTTCGAGTAAACAAATTTTCCTAATCTTTCTGTTCAAGCGCCATCTAC,1 RPM ratio (pull-down/input)

row,Sequence,binding signal
1,GATGATTGTTCTCCCAGCTGATGAATTCGTCGAATCGAGTAAACAAATTTTCCTAATCTTTCTGTTCAAGCGCCATCTAC,0.99 RPM ratio (pull-down/input)
2,GATGATTGTTCTCCCAGCTGATGAATTTGAAAATTCGAGTAAACAAATTTTCCTAATCTTTCTGTTCAAGCGCCATCTAC,0.964 RPM ratio (pull-down/input)
3,GATGATTGTTCTCCCAGCTGATGAATTAGGTATTTCGAGTAAACAAATTTTCCTAATCTTTCTGTTCAAGCGCCATCTAC,0.936 RPM ratio (pull-down/input)
4,GATGATTGTTCTCCCAGCTGATGAATTCCGTATCTCGAGTAAACAAATTTTCCTAATCTTTCTGTTCAAGCGCCATCTAC,0.916 RPM ratio (pull-down/input)
5,GATGATTGTTCTCCCAGCTGATGAATTTGGAGGATCGAGTAAACAAATTTTCCTAATCTTTCTGTTCAAGCGCCATCTAC,0.84 RPM ratio (pull-down/input)
6,GATGATTGTTCTCCCAGCTGATGAATTTCTAAGCTCGAGTAAACAAATTTTCCTAATCTTTCTGTTCAAGCGCCATCTAC,0.86 RPM ratio (pull-down/input)
7,GATGATTGTTCTCCCAGCTGATGAATTGTTTGCGTCGAGTAAACAAATTTTCCTAATCTTTCTGTTCAAGCGCCATCTAC,2.27 RPM ratio (pull-down/input)
8,GATGATTGTTCTCCCAGCTGATGAATTCTCCCGCTCGAGTAAACAAATTTTCCTAATCTTTCTGTTCAAGCGCCATCTAC,0.901 RPM ratio (pull-down/input)
9,GATGATTGTTCTCCCAGCTGATGAATTGATAGGCTCGAGTAAACAAATTTTCCTAATCTTTCTGTTCAAGCGCCATCTAC,0.858 RPM ratio (pull-down/input)
10,GATGATTGTTCTCCCAGCTGATGAATTCTCAGAGTCGAGTAAACAAATTTTCCTAATCTTTCTGTTCAAGCGCCATCTAC,0.765 RPM ratio (pull-down/input)
11,GATGATTGTTCTCCCAGCTGATGAATTCAATGTTTCGAGTAAACAAATTTTCCTAATCTTTCTGTTCAAGCGCCATCTAC,1.16 RPM ratio (pull-down/input)
12,GATGATTGTTCTCCCAGCTGATGAATTACCCGCCTCGAGTAAACAAATTTTCCTAATCTTTCTGTTCAAGCGCCATCTAC,0.938 RPM ratio (pull-down/input)
13,GATGATTGTTCTCCCAGCTGATGAATTGCCAGGTTCGAGTAAACAAATTTTCCTAATCTTTCTGTTCAAGCGCCATCTAC,0.861 RPM ratio (pull-down/input)
14,GATGATTGTTCTCCCAGCTGATGAATTCCTAAGATCGAGTAAACAAATTTTCCTAATCTTTCTGTTCAAGCGCCATCTAC,0.868 RPM ratio (pull-down/input)
15,GATGATTGTTCTCCCAGCTGATGAATTTAGGGTTTCGAGTAAACAAATTTTCCTAATCTTTCTGTTCAAGCGCCATCTAC,1.04 RPM ratio (pull-down/input)
16,GATGATTGTTCTCCCAGCTGATGAATTGCCCTCCTCGAGTAAACAAATTTTCCTAATCTTTCTGTTCAAGCGCCATCTAC,0.899 RPM ratio (pull-down/input)
17,GATGATTGTTCTCCCAGCTGATGAATTCGACGGTTCGAGTAAACAAATTTTCCTAATCTTTCTGTTCAAGCGCCATCTAC,0.863 RPM ratio (pull-down/input)
18,GATGATTGTTCTCCCAGCTGATGAATTCGAGGTATCGAGTAAACAAATTTTCCTAATCTTTCTGTTCAAGCGCCATCTAC,0.884 RPM ratio (pull-down/input)
19,GATGATTGTTCTCCCAGCTGATGAATTCAGGTGATCGAGTAAACAAATTTTCCTAATCTTTCTGTTCAAGCGCCATCTAC,0.833 RPM ratio (pull-down/input)
20,GATGATTGTTCTCCCAGCTGATGAATTCACATTCTCGAGTAAACAAATTTTCCTAATCTTTCTGTTCAAGCGCCATCTAC,0.877 RPM ratio (pull-down/input)
